Results reported in the RNAGym collection of RNA variant scans (doi:10.7554/elife.90254).
The source gives no read counts; variants with many changes may rest on few reads.

B1: LINE1-mini (parent)
chain: GGCAGAGCUCAACACAGCGUGGCAAAGUGGCUGUGGCUAGACUGCC

Variants of: B1
Assay: self-cleavage, relative activity (ratio to wild type); higher = more cleavage; in vitro, sequencing; the parent is a self-cleaving ribozyme
For GGCAAAGCUCAACCCAGCGUGGCAAAGUGGCUGUGUCUAGGCUGGC [G5A A14C G36U A41G C45G], the self-cleavage was 0.03.
For GGCAAAGUCCAACACAGCGUGGCAAAGUGGCUGUGGCUAGACUGCC [G5A C8U U9C], the self-cleavage was 0.04.
In the case of GGCAAAGCUCAACACAGCGUGGCAACGUGGCUGUGGCUAGACUGCU [G5A A26C C46U], the self-cleavage is reported as 0.12.
For GGCAAAGCUAAACACAGCGUGGCAAAGUGGCUGAGGCUAAACUGCC [G5A C10A U34A G40A], the self-cleavage was 0.03.
Variant GGCAAAGUUCAACACAGCGUGGCAAAGUGGUUGUGGCUUGACUGCC [G5A C8U C31U A39U] has a self-cleavage of 0.05.
Work on GGCAAAGGUCAAAACAGCGUGGGAAAGUGGCUGUGGCUAGACUGCC [G5A C8G C13A C23G] yielded a self-cleavage of 0.01.
Variant GGCAAAGAUCAACACAGCGUGGCAAAGUGGCUUUAGCUAGACUGCC [G5A C8A G33U G35A] has a self-cleavage of 0.07.
GGCAAAGGUCAACACAGCGUGGCAAAGUGGCUGUGUCUAGACUGCC [G5A C8G G36U] gave a self-cleavage of 0.04.
For GGCAAAGCUCAACUCAGCGUGGCAAAGUAGCUGUGGCUAGACUGCC [G5A A14U G29A], the self-cleavage was 0.1.
In the case of GGCAAAGCUCAACACAGCGUGGCGAAGUGGCAGUGGCUAGUCUGCC [G5A A24G U32A A41U], the self-cleavage is reported as 0.06.
GGCAAAGCUAAACACAGCGUGGCAAAGUGGCUGUGGCUAGCCUGCC [G5A C10A A41C] showed a self-cleavage of 0.07.
GGCAAAGUUCAACACAGCGUGUCAAAGUGGCUGUGACUAGACUGCC [G5A C8U G22U G36A] gave a self-cleavage of 0.48.
With GGCAAAGGUCAACACAGCGUGGCAAAUUGGCUGUGGCUAGACUGCC [G5A C8G G27U] the self-cleavage was 0.03.
With GGCAAAGCUCAACACAGCGUGGCAAAGUGGCUGUGGCUAGUCUGCU [G5A A41U C46U] the self-cleavage was 0.06.
Work on GGCAAAGGUCAACACAGCGUGGCCAAGUAGCUGUAGCUAGACAGCC [G5A C8G A24C G29A G35A U43A] yielded a self-cleavage of 0.03.
For GGCAAAGGUCAACACAUCGUGGCAAAGUGGCUGUGGCUGGACUGCC [G5A C8G G17U A39G], the self-cleavage was 0.02.
Work on GGCAAAGCUCAACCCAGCGUGGCAAAGUGGCUGGGGCUAGACCGCC [G5A A14C U34G U43C] yielded a self-cleavage of 0.
Work on GGCAAAGCUCAACCCAGCGUGGCAAAGUGGCUGUGACUAGACUGCC [G5A A14C G36A] yielded a self-cleavage of 0.08.
GGCAAAGGUCAAAACAGCGUGGCAAAGUGGCUGUGGCUAUACUGCG [G5A C8G C13A G40U C46G] showed a self-cleavage of 0.11.
GGCAAAGCUGAACACAGCGUGACAAAUUGGCUGUGGCUAGACUGUC [G5A C10G G22A G27U C45U] gave a self-cleavage of 0.01.
GGCAAAGCUCAACCCAGUGUGGCAAAGUGGCUGUAGCUGGUCUGCC [G5A A14C C18U G35A A39G A41U] gave a self-cleavage of 0.18.
For GGCAAAGCUCAACACCGGGUGGCAAAGUGGCAGUGGGUAGACUGCC [G5A A16C C18G U32A C37G], the self-cleavage was 0.04.
Work on GGCAAAGCUCAACGCAGCGUGGCAAUGUGGCGGUGGCUAGACUGCC [G5A A14G A26U U32G] yielded a self-cleavage of 0.05.
In the case of GGCAAAGCUCAACACAGCGUGGCAACGUGGCUGUGGCUAGACUUCC [G5A A26C G44U], the self-cleavage is reported as 0.1.
With GGCAAAGCUCAACGCAGCGUGCCCAAGUGGCUGUGGCUAGAAUGCC [G5A A14G G22C A24C C42A] the self-cleavage was 0.
GGCAAAGCUCAUCACAGCGUAGCAAGGUGGCUUUGGCUAGACUGCC [G5A A12U G21A A26G G33U] gave a self-cleavage of 0.
Work on GGCAAAGAUCAACACAGAGUUGCCAAGUGGCUGUCGCUAGACUGCC [G5A C8A C18A G21U A24C G35C] yielded a self-cleavage of 0.07.
Variant GGCAAAGCUCAACACUGCGUGGCAAAUAGGCUGUGGCUAGACUGCC [G5A A16U G27U U28A] has a self-cleavage of 0.07.
For GGCAAAGCUCAACCCAGCGUGGCACAGUGGCUGUGGCUAGACUGCC [G5A A14C A25C], the self-cleavage was 0.06.
With GGCAAAGCUGAACACAGCGUGGCAAAGUGGCUGUGUCUAGACUGCC [G5A C10G G36U] the self-cleavage was 0.06.
In the case of GGCAAAGCUCAACACAGCGUGGCCAAGUGGCUGUGCCUAGACUGCC [G5A A24C G36C], the self-cleavage is reported as 0.03.
GGCAAAGCUCAACACAGCGUGGCAUACUGGGUGUGGCGCGACUGCC [G5A A25U G27C C31G U38G A39C] showed a self-cleavage of 0.28.
In the case of GGCAAAGCUGAACACAGCGUGGCCAAGUGGCUGUGGAUAGACUGCC [G5A C10G A24C C37A], the self-cleavage is reported as 0.02.
Work on GGCAAAGCUCAACACAGCGUGGCACAGUGGCGGUGGCUAGAUUGCC [G5A A25C U32G C42U] yielded a self-cleavage of 0.08.
In the case of GGCAAAGCUCAACACCGGGUGGCAAAGUGGCUGUGCCUAGACUGCC [G5A A16C C18G G36C], the self-cleavage is reported as 0.01.
For GGCAAAGCUCAACGCAGCGGGCCAAAGUGGCUGUGGCUAGACCUCC [G5A A14G U20G G22C U43C G44U], the self-cleavage was 0.04.
Variant GGCAAAGCUCAACACAGCGUGGCCAAGUGGCUAUCCCUAGACUGCC [G5A A24C G33A G35C G36C] has a self-cleavage of 0.03.
With GGCAAAGCUCAACCCAGAGUGGUAAAGUGGCUGUGGCUAGACUGCC [G5A A14C C18A C23U] the self-cleavage was 0.16.
GGCAAAGCUCAACUCAGCGCGGCAAAGUGGCUGUGGCUAGACUGCC [G5A A14U U20C] showed a self-cleavage of 0.71.
In the case of GGCAAAGCUCAACACAGCGUGGCCAAGUGGCUGUGACUACGCUGCU [G5A A24C G36A G40C A41G C46U], the self-cleavage is reported as 0.
Variant GGCAAAGCUCAACACCGCGUGACGAAGUGGAUGUAGCUAGACUGCC [G5A A16C G22A A24G C31A G35A] has a self-cleavage of 0.
Work on GGCAAAGCUCAACACAGCGUGGCAAGGUGGCGGUGGCUAGGCUGCA [G5A A26G U32G A41G C46A] yielded a self-cleavage of 0.01.
Work on GGCAAAGCUCAACGCAGCGUGGAAAAGUGGCUGUGGCUAGACUGCC [G5A A14G C23A] yielded a self-cleavage of 0.15.
GGCAAAGCUCAACACAGCGUGGCGAAGUGGCUGUGGCAGGACUCCC [G5A A24G U38A A39G G44C] showed a self-cleavage of 0.04.
Variant GGCAAAGCUCAACCCAGCGUGGCAAAGUGGCUGUUGCUAGACUGCC [G5A A14C G35U] has a self-cleavage of 0.25.
GGCAAAGAUCAACACAGCGUGGCAAAGCGGCUGUUGCUAGACUGCC [G5A C8A U28C G35U] showed a self-cleavage of 0.08.
Work on GGCAAAGCUCAACGCUGCGUGGUAAAGCGGCUGUUGCUAGACUGCC [G5A A14G A16U C23U U28C G35U] yielded a self-cleavage of 0.1.
GGCAAAGCUCAACACAGCGUGGCAGAAUGGCUGUGGCUACACUGCC [G5A A25G G27A G40C] gave a self-cleavage of 0.11.
Work on GGCAAAGGUCAACACAGCGUGGCAAAGUGCCUGUGGCUAGACUGCC [G5A C8G G30C] yielded a self-cleavage of 0.02.
GGCAAAGAUCAACACAGCGUGUCAAAGUGGAUGUGGCUAGACUGCC [G5A C8A G22U C31A] showed a self-cleavage of 0.5.
For GGCAAAGCUCAACGCAGAGUGGCAAUGUGGCUGUAGCUAGAAUGCC [G5A A14G C18A A26U G35A C42A], the self-cleavage was 0.18.
In the case of GGCAAAGCUGAACACAGCGUGGCAUAGUGGCUGUGGCUAGACUGCC [G5A C10G A25U], the self-cleavage is reported as 0.02.
GGCAAAGCUCAACACAGCGUGGCGAAGUGGCUGUGGCUAGACUUUC [G5A A24G G44U C45U] gave a self-cleavage of 0.02.
GGCAAAGCUGAACACAGCGUGACAAAGUGGCUGUGGCUAGACUGCC [G5A C10G G22A] gave a self-cleavage of 0.03.
GGCAAAGCUCAACGCAGCGUGGCAAGGUGGCUGUGGCUAGACUGCC [G5A A14G A26G] gave a self-cleavage of 0.05.
Work on GGCAAAGCUGAACGCAGCGUGGCAAAGUGGCUGUGGCUAGACUGCA [G5A C10G A14G C46A] yielded a self-cleavage of 0.01.
